# The whole screen tested about 2,200 compounds, of which fewer than 10 were called active. The list shows a part of the results. Where no call is shown, the source marks the result inconclusive.
# Target: GTPase KRas (Homo sapiens) (UniProt P01116)
# Assay: Fragment capture on engineered cysteines, share of protein labelled (AID 2202238)
# Parameters: protein at 5 µM with 500 µM competing thiol for 1.5 h
# Conditions: KRAS G12D cysteine mutants, disulfide tethering, MALDI-TOF labeling; stronger effect = higher value; H27C mutant labeling; fragment at 500 µM
# Sequence of UniProt P01116 (P01116 whole entry, looked up, the tested form may be a part): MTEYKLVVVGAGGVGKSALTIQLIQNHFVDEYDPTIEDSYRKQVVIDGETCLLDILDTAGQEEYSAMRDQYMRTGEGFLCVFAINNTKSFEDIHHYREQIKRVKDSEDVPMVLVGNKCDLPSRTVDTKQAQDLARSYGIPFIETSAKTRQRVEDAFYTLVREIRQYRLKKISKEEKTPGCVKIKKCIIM
row,Structure (SMILES),percent labeling
1,COc1cc(CCNC(=O)CCS)ccc1O,38.6%
2,O=C(CCS)Nc1cccc(CN2CCCC2=O)c1,41.3%
3,O=C(CCS)NCCn1ccc(C(F)(F)F)n1,27.6%
4,Cc1nc(-c2cccc(C(=O)NCCS)c2)cs1,35.5%
5,CC1(c2cccc(C(=O)NCCS)c2)NC(=O)NC1=O (centres undefined),48.5%
6,Cn1c(C(=O)NCCS)c(Cl)c2ccccc21,26.1%
7,O=C(NCCS)c1ccc(Cn2cc(Cl)cn2)o1,50.2%
8,NC(=O)c1cc(NC(=O)CCS)cc(C(N)=O)c1,49.9%
9,O=C(CCS)Nc1cccc(Cn2cccnc2=O)c1,35.8%
10,CCOc1ccc2ccccc2c1C(=O)NCCS,33.3%
11,O=C(CCS)NCc1ccn(-c2c(F)cccc2F)n1,46%
12,COC(=O)C(Cc1cn(C)nc1C)NC(=O)CCS (centres undefined),26.7%
13,O=C(Cc1csc(-c2cnccn2)n1)NCCS,39.6%
14,CCC(OC1CCCC(C)C1)C(=O)NCCS (centres undefined),24.2%
15,O=C(CCn1sc2ccccc2c1=O)NCCS,9.8%
16,CC(C)c1ccc2c(c1)CC[C@H]1[C@](C)(CNC(=O)CCS)CCC[C@]21C,8.4%
17,CC1(CNC(=O)CCS)CCS(=O)(=O)CC1,28.2%
18,O=C(CCS)N1CCCN(C(=O)c2ccc[nH]c2=O)CC1,34.6%
19,O=C(CCS)N1CCN(c2cncc3nnnn23)CC1,11.4%
20,Cc1ccc(-c2cc(C(=O)NCCS)[nH]n2)cc1,25.2%
21,O=C1CC(C(=O)NCCS)C2CCCCC2N1 (centres undefined),29%
22,CC1C(C(=O)NCCS)CCN1c1ccccc1 (centres undefined),14.8%
23,O=C(CCS)NC1CCC2(CC1)CC(O)C2 (centres undefined),38.7%

row,Structure (SMILES),percent labeling
1,O=C(O)Cc1ccc(S(=O)(=O)N2CCC(C(=O)NCCS)CC2)cc1,23.9%
2,COC(=O)c1cc(=O)[nH]c2c1CN(C(=O)CCS)CC2,36.5%
3,COc1c(C)cnc(Cn2ccc(NC(=O)CCS)n2)c1C,39.9%
4,COc1ccc2c(c1)c(C(=O)NCCS)c(C)n2C,33.8%
5,O=C(CCS)N1CCN(C(=O)Nc2ccc(Cl)cc2)CC1,25.9%
6,O=C(CCS)Nc1ccc2c(c1)ncn2CC(F)(F)F,42.8%
7,CC1(C)CC(C(=O)NCCS)C1C(F)(F)F (centres undefined),21.3%
8,C[C@H](C(=O)NCCS)N1Cc2ccccc2C1=O,33.9%
9,CCOC(=O)c1[nH]ncc1C1CCN(C(=O)CCS)CC1,59.2%
10,CN(CC(=O)Nc1ccc2c(c1)OCCO2)C(=O)CCS,42.5%
11,COc1cccc(Cn2nc(C)c3c(NC(=O)CCS)[nH]nc32)c1,31.2%
12,O=C(NCCS)C(F)(F)c1ncc[nH]1,25.3%
13,COc1ccc2c(c1)CC1(CCN(C(=O)CCS)CC1)C2=O,48.5%
14,CCc1oc2ccccc2c1CC(=O)NCCS,26.4%
15,O=C(CCS)Nc1ccc(-c2nnc3n2CCOC3)cc1,48.3%
16,O=C(CNC(=O)c1cc2ccccc2[nH]1)NCCS,27%
17,COc1ccnc(N2CCN(C(=O)CCS)CC2)n1,41.8%
18,COc1ccc(-n2nc(C(=O)NCCS)cc2C)cc1,43.4%
19,O=C(NCCS)c1ccc(Cc2n[nH]c(=O)c3ccccc23)cc1F,31.8%
20,Cc1nn(C2CCOCC2)cc1NC(=O)CCS,33.3%
21,Cc1cc(C)n2nc(CC(=O)NCCS)nc2n1,30.9%
22,Cc1nc(C2CCN(C(=O)CCS)CC2)no1,28.9%
23,O=C(NCCS)c1ccc2nnc(-c3ccccc3)n2c1,46.5%

row,Structure (SMILES),percent labeling
1,Cc1nn(C)c(C)c1CC(=O)N1CCC(C(=O)NCCS)CC1,36.5%
2,O=C(CCS)N1CCC(c2nc(-c3ccc(F)cc3)no2)(C(F)(F)F)C1 (centres undefined),11.4%
3,Cc1nc2c(cc(OCCNC(=O)CCS)c3ccsc32)s1,24.4%
4,Cc1cccc(NCC2CCCN2C(=O)CCS)n1 (centres undefined),51.7%
5,O=C(NCCS)C1CCN(C(=O)c2ccccc2)C1 (centres undefined),44.1%
6,Cc1ccc(Nc2nccc(C(F)(F)F)n2)cc1C(=O)NCCS,16.1%
7,Cc1nc2cc(F)cc(C(=O)NCCS)c2nc1C,30.5%
8,O=C(CCS)N1CCC(c2cc(CO)on2)CC1,34.7%
9,O=C(CCS)N1CCc2c(nc[nH]c2=O)C1,35.1%
10,Cc1cc(C)n(C2CN(C(=O)CCS)C2)n1,35.8%
11,O=C(NCCS)c1c(Cl)cnn1C1CCCC1,28.1%
12,CC(C)CN(Cc1ccccn1)C(=O)CCS,36.1%
13,Cc1nn(C)c(-n2cncn2)c1NC(=O)CCS,29%
14,O=C(CCS)NCC(=O)N1CCN(c2ccccc2)CC1,31%
15,O=C(NCCS)c1ccc(Oc2ccc(F)cc2Br)nc1,25.7%
16,O=C(NCCS)c1ccnc2nc(C3CCOCC3)[nH]c12,43.4%
17,O=C(CCS)Nc1c(-c2ccccc2)[nH][nH]c1=O,16%
18,O=C(NCCS)C(CC1CCCO1)C(F)(F)F (centres undefined),27.5%
19,CCOc1ccc(NC(=O)CCS)c2ncccc12,30.8%
20,O=C(NCCS)c1cc(-c2cnc3[nH]ccc3c2)ccn1,34.5%
21,Cc1cc(CNC(=O)CCS)ccc1Oc1ccc(F)cc1,24.9%
22,O=C(NCCS)c1cn(CC2CCOC2)nn1 (centres undefined),35.8%
23,Cc1c([C@H]2[C@H](C(=O)NCCS)CC(=O)N2C2CC2)cnn1C,27.7%

row,Structure (SMILES),percent labeling
1,O=C(NCCS)c1cccc(NC(=O)c2ccc3nc[nH]c3c2)c1,32.5%
2,O=C(CCc1nc2ccccc2n1-c1ccccc1)NCCS,25.5%
3,O=C(Cn1nc(-c2ccccc2)ccc1=O)NCCS,41.1%
4,Cc1nc2nc(C(=O)NCCS)cc(C(C)(C)C)n2n1,34.3%
5,O=C(NCCS)c1cnc(C2CCCO2)s1 (centres undefined),20.3%
6,O=C(CCS)NCC1CN(Cc2ccccc2)Cc2nccn2C1 (centres undefined),33.1%
7,O=C(CCS)N1CCC(n2c(=O)[nH]c3cccnc32)CC1,54.4%
8,O=C(CCS)Nc1ccc(-n2ccccc2=O)cc1F,47.3%
9,CC1(C)CN(C(=O)CCS)CCN(C(=O)OC(C)(C)C)C1,40.4%
10,CC1CCc2cc(F)cc3c(=O)c(C(=O)NCCS)cn1c23 (centres undefined),43.5%
11,O=C(CCS)NC1CCC(C(F)(F)F)CC1 (centres undefined),33.9%
12,CCc1nc(COc2ccc(C(=O)NCCS)cc2)no1,32.7%
13,O=C(CCS)Nc1ccc(Oc2ccc(F)cc2)c2ccncc12,18.1%
14,O=C(CCS)NCc1cc(=O)[nH]c(C2CC2)n1,31%
15,Cc1nc(NC(=O)CCS)sc1Cc1ccccc1,38%
16,O=C(CCS)Nc1cnn(-c2ccccc2)c1,27.1%
17,O=C1NC(=O)C2(CCC(C(=O)NCCS)CC2)N1 (centres undefined),41.4%
18,O=C(CCS)Nc1ccnn1Cc1ccc(Cl)cc1,42%
19,COCc1nc2sc(C(=O)NCCS)c(C)c2c(=O)[nH]1,46.7%
20,O=C(NCCS)C1CCCN(c2ncnc3sccc23)C1 (centres undefined),40.2%

# From PubChem BioAssay AID2202238 (Ras Initiative Chemistry Research Team, Frederick National …, 2025)
